In PubChem BioAssay AID1745853 (National Center for Advancing Translational Sciences (NCATS), 2022):
The other results are listed elsewhere or left out. The main result of the screen is listed elsewhere. These columns were measured beside it and carry no call.

Legend:
Assay in all cases: Primary Screen for Target Class Profiling of Small Molecule Inhibitors of Methyltransferases
[1] = molecular target: Glycine N-methyltransferase (Homo sapiens) (UniProt Q14749); details: purified enzyme, MTase-Glo SAH luminescence; measured here: GNMT inhibition; at 40 µM; stronger effect = lower value
Source text: (§1) PI: Matthew D. Hall Ph.D. and Quinlin M. Hanson Ph.D.
(§2) National Center for Advancing Translational Sciences (NCATS)
(§3) National Institute of Health (NIH), Rockville, MD
(§4) Target class profiling (TCP) is a chemical biology approach amenable to investigating understudied biological targets. TCP is achieved by developing a generalizable assay platform and applying it to screen a curated set of compound libraries against representative members of a target class. Small molecule methyltransferases (SMMTase) are a subclass of methyltransferase that act on metabolites to modulate signaling pathways, metabolize xenobiotics, or balance the available methyl pool. We screened four curated libraries totaling 27,574 unique compounds against the SMMTases nicotinamide N-methyltransferase (NNMT), phenylethanolamine N-methyltransferase (PNMT), histamine N-methyltransferase (HNMT), glycine N-methyltransferase (GNMT), catechol O-methyltransferase (COMT), and guanidinoacetate N-methyltransferase (GAMT). The data generated by this TCP can be leveraged for informed tool molecule development. For example, in the associated publication we identified a chemotype of HNMT-selective inhibitors. Additionally, we identified a putative SMMTase-selective inhibitor with potential as a tool molecule for studying broader methyltransferase biology.
(§5) High-through put screening assays were developed at the National Center for Advancing Translational Science (NCATS) for the enzymes NNMT, PNMT, HNMT, GNMT, COMT, and GAMT. Enzymatic activity was measured as a function of SAM cofactor conversion using the MTase Glo kit (Promega) for all enzymes. All assays were performed in 1536-well format with substrates and SAM concentrations at KM values. Enzyme concentration and assay timing were optimized for 10-20% SAM conversion. Initial screening of 27,574 compounds was done as single-point assays using the highest compound concentration (40 uM). […] These compounds were replated in 11-point dose response and assayed against NNMT, PNMT, HNMT, GNMT, COMT, GAMT, and a counter-assay. The IC50 and efficacy (maximal response) values were determined for each dose-response curve. These values are also accounted for in the area under the curve (AUC) values.
(§6) PROTOCOL TABLE (as described by Inglese J, Shamu CE and Guy RK. 2007)
(§7) SEQUENCE No. (e.g., 1, 2, 3, etc.); […] (e.g., Cells, Incubation, Reagent, etc.); VALUE; DESCRIPTION.
(§8) 1; Reagent; 2 uL; SMMTase Enzyme (2x) in reaction buffer, columns 1- 48.
(§9) 2; Reagent; 1 uL; SAM (4x) in reaction buffer, columns 1-48.
(§10) 3; Controls; 23 nL; DMSO in column 4; sinefungin in DMSO (0 uM - 40 uM) in 7-point 1:2 dilution series (n = 2) in column 2.
(§11) 4; Compounds; 23 nL; Columns 5-48.
(§12) 5; Reagent; 1 uL; Substrate (4x) in reaction buffer, columns 2-48.
(§13) 6; Time; 20-30 min; Incubation.
(§14) 7; Reagent; 1 uL; MTase-Glo reagent (5X), columns 1-48.
(§15) 8; Time; 30 min; Incubation.
(§16) 9; Reagent; 5 uL; MTase-Glo Detection reagent, columns 1-48.
(§17) 10; Time; 30 min; Incubation, luminescence evolution.
(§18) 11; Detection; Luminescence; ViewLux uHTS Microplate Imager (PerkinElmer).
(§19) NOTES (numbers refer to Sequence numbers above)
(§20) 1, 2, 5. White Medium Binding Greiner 1536-well plates (Cat #789175-F, Greiner Bio-One, Monroe, NC); Reaction buffer: 50 mM Tris, pH 8.0, 3 mM MgCl2, 1 mM EDTA, 50 mM NaCl, 1 mM DTT, and 0.1 mg/mL BSA. Evaporation was prevented by covering assay plates with metal lids containing holes to allow gas diffusion.
(§21) 1. Six SMMTase were profiled: HNMT, GNMT, PNMT, COMT, NNMT, GAMT
(§22) 5. The corresponding substrate was used for each enzyme: HNMT - 5.3 uM Histamine; GNMT - >500 uM Glycine; PNMT - 16.2 uM Norephinephrine; COMT - 13.7 uM Norephinephrine; NNMT - 3.8 uM Nicotinamide; GAMT - 2.5 uM Guanidinoacetate.6, 8, 10. Room temperature
(§23) 6. Final reaction conditions: 10 nM COMT, 5 uM SAM, 15 uM norepinephrine, 50 mM Tris, pH 8.0, 3 mM MgCl2, 1 mM EDTA, 50 mM NaCl, 1 mM DTT, and 0.1 mg/mL BSA; refer to tables 2 and S1 for specific timing.
8. […]

[2] = molecular target: Guanidinoacetate N-methyltransferase (Homo sapiens) (UniProt Q14353); details: purified enzyme, MTase-Glo SAH luminescence; measured here: GAMT inhibition; at 40 µM; stronger effect = lower value
Source text: as §1, §2, §3, §4, §5, §6, §7, §8, §9, §10, §11, §12, §13, §14, §15, §16, §17, §18, §19, §20, §21, §22, §23
8. […]

[3] = molecular target: Histamine N-methyltransferase (Homo sapiens) (UniProt P50135); details: purified enzyme, MTase-Glo SAH luminescence; measured here: HNMT inhibition; at 40 µM; stronger effect = lower value
Source text: as §1, §2, §3, §4, §5, §6, §7, §8, §9, §10, §11, §12, §13, §14, §15, §16, §17, §18, §19, §20, §21, §22, §23
8. […]

[4] = molecular target: Nicotinamide N-methyltransferase (Homo sapiens) (UniProt P40261); details: purified enzyme, MTase-Glo SAH luminescence; measured here: NNMT inhibition; at 40 µM; stronger effect = lower value
Source text: as §1, §2, §3, §4, §5, §6, §7, §8, §9, §10, §11, §12, §13, §14, §15, §16, §17, §18, §19, §20, §21, §22, §23
8. […]

[5] = molecular target: Phenylethanolamine N-methyltransferase (Homo sapiens) (UniProt P11086); details: purified enzyme, MTase-Glo SAH luminescence; measured here: PNMT inhibition; at 40 µM; stronger effect = lower value
Source text: as §1, §2, §3, §4, §5, §6, §7, §8, §9, §10, §11, §12, §13, §14, §15, §16, §17, §18, §19, §20, §21, §22, §23
8. […]
On the % scale 0 is the no-effect control and ±100 the full control effect.

SMILES | activity change, negative = inhibition [1] [%] | activity change, negative = inhibition [2] [%] | activity change, negative = inhibition [3] [%] | activity change, negative = inhibition [4] [%] | activity change, negative = inhibition [5] [%]
CCn1ccc(C(=O)N2CCc3nc(NC)nc(C(=O)N4CCCC4)c3C2)n1 | -1.08 | 1.04 | 0.752 | -1.12 | 2.21
CCCCN(CCCC)CCCN1C(=O)c2cc3occc3n2CC1(C)C(=O)NC1CCCCCC1 (stereo not given) | -1.81 | 2.4 | 0.486 | 8.17 | -2.65
COCC(=O)NC/C=C/c1ccc2ncnc(Nc3ccc(Oc4ccc(C)nc4)c(C)c3)c2c1 | -15.4 | 4.11 | -3.95 | -32.6 | -5.11
CCCn1c(=O)c2ccc(C(=O)NC(C)C)cc2n2c(=O)n(CC(=O)Nc3ccccc3F)nc12 | 2.86 | 0 | -0.622 | -1.75 | 3.82
O=C(NCCCN1CCOCC1)c1cnn2c(-c3ccccc3)cc(-c3ccccc3)nc12 | -10.5 | -8.82 | -11.1 | -46.2 | -21
CCCc1nc(C(=O)N(C)Cc2cnn(-c3ccccc3C)c2)cs1 | -4.35 | -2.25 | -0.851 | -11.9 | -3.44
COC(=O)c1ncn2c1C(=O)N(c1ccc(C(C)C)cc1)C(C)(C(=O)NC1CCCC1)C2 (stereo not given) | 2.19 | 0 | -3.08 | 3.19 | -1.2
COc1ccc(-c2noc([C@@H](C)NCc3ccc(F)cc3)c2C(=O)O)cc1 | -6.2 | -3.92 | -2.1 | -10 | 8.15
Cc1nc(CN(C)C(=O)c2coc(COc3ccc(F)cc3Cl)n2)cs1 | -2.62 | -1.69 | -1.49 | -3.4 | -2.92
COC(=O)C1Cc2c([nH]c3ccccc23)C(C)N1 (stereo not given) | -9.13 | 1.35 | -3.18 | 3.57 | -4.96
COC(=O)c1ccccc1NC(=O)c1ncn2c1C(=O)N(C1CC1)C(C)(C(=O)NCc1ccc(F)cc1)C2 (stereo not given) | -2.63 | 3.54 | -0.274 | -1.61 | 0.28
N#Cc1ccc(C(=O)N2CCOC[C@H](Oc3ccc(C(F)(F)F)cc3)C2)cc1 | -9.81 | -5.09 | -5.96 | -14.1 | -7.49
CCOC(=O)c1cc2n(n1)CC(C)(C(=O)NC1CCCC1)N(Cc1ccc(CC)cc1)C2=O (stereo not given) | -2.44 | 0 | 5.89 | -0.243 | 1.98
CC(C)NCC(O)COc1ccc(CC(N)=O)cc1 (stereo not given) | 2.54 | 5.1 | 4.58 | -7.11 | 2.01
